From paper PMC5799093, “Proceedings of Réanimation 2018, the French Intensive Care Society International Congress” (Annals of Intensive Care, 2018)

System: tramadol-overdosed rats
Assay: Antidotes for tramadol overdose: seizures, plethysmography, sedation, EEG
Conditions: 75 mg kg IP tramadol; diazepam 1.77 mg kg IP; naloxone 2 mg kg IV bolus then 4 mg kg h

Q: With `CN1C(=O)CN=C(c2ccccc2)c2cc(Cl)ccc21` [diazepam] as the compound, how does the tramadol-induced seizures read?
A: abolished seizures

Q: `C=CCN1CC[C@]23c4c5ccc(O)c4O[C@H]2C(=O)CC[C@@]3(O)[C@H]1C5` [naloxone] was tested. Which tramadol-induced seizures did it give?
A: significantly increased seizures

Q: With `COc1cccc(C2(O)CCCCC2CN(C)C)c1` (stereo not drawn) [tramadol] as the compound, how does the tramadol-induced seizures read?
A: electro-clinical seizures as soon as 5 min after the injection

System: tramadol-induced seizures
Assay: not given
Conditions: 75 mg kg tramadol IP; 'by contrast' = seizures not abolished

Q: How did the “tramadol-induced seizures after pretreatment” value turn out when `CN1CCC(=C2c3ccccc3C=Cc3ccccc32)CC1` [cyproheptadine] was run?
A: by contrast

Q: `CC(C)(C(=O)O)c1ccc(C(O)CCCN2CCC(C(O)(c3ccccc3)c3ccccc3)CC2)cc1` (stereo not drawn) [fexofenadine] was tested. Which “tramadol-induced seizures after pretreatment” value did it give?
A: by contrast

Q: How did the “tramadol-induced seizures after pretreatment” value turn out when `C=CCN1CC[C@]23c4c5ccc(O)c4O[C@H]2C(=O)CC[C@@]3(O)[C@H]1C5` [naloxone] was run?
A: by contrast
